From the supplement of paper PMC12632987
Over roughly 4,500 sequences, “median log2 fold change of GCK-ALFA target abundance (FLAG IP / Myc IP barcode read proportion)” has its median near 0.078; the lowest 2% begin near -0.6. The list shows a part of the results.

B1: GBRAP_74_6511 (protein)
chain: MEELLKELKKAAEEKDVKKLVELAKKIAKEGNKEAIEKAAEIVIEFVEKNLDELTPEELEALADALAELADKLMELGGDSEVINRVAKAAVELQKKLEAL
B2: GBRAP_9_7123 (protein)
chain: MEEMIKKMAEVVKEMIEDISLAVPSVTEELKEKWLKKVEELEKEALKDKSLTPEEIKKKFKELVKEIKEEVKKIVNPEDAKIVDAIALTAEEEIDEIVEE
B3: GBRAP_52_6017 (protein)
chain: MRERLRAFVDEALELVKAGKLEEAQKLVDELVASLNEEEIKVLIDVVAERAAAAAPEDHDAVWRLAEMIAEAMEKAGYDEALADDLLARVAAALYEAEQR
B4: GBRAP_128_3330 (protein)
chain: MDEEALEKAKELAKELEKADEEEAAKLTREIVALLGKASPEEREKIAEIFEKALEKLTAEKLDVVADTLREERPKLSPEAQLVVAGLEVEALNLAEEKEE
B5: GBRAP_166_4973 (protein)
chain: SQKELVEELKKELDRLAEKMKTADYEEKLELLAEAAELLREAKEKGLSKEDLRELIRYLIEKAKEVGIPLSAVEGALTILAELDEEEVDILLEAIEEVEA
B6: GBRAP_11_2757 (protein)
chain: KKEKLKEIAEKAKKLAELLEKLLKEGVDNEELLKKAKELLEELKKLVEKYGDESLKKLVEILEEEFEKALKDKENKEKYVQNALATAAVIAGQALLEYEE
B7: GBRAP_160_4840 (protein)
chain: SEKLEKVKKELEETLKFVLSLVDEVSVEDLAKFFDAEIGTTLLYLYEEGYINEEAFDAGIELADEAREALLAAADASPEELKALIKEKVEEMIKKIEKLL
B8: GBRAP_160_4365 (protein)
chain: SEALKELAEEIEELREEFREEAKDLSPEEVRTLGLGVLAEVAALVWDNEAVSDEVEDEIMEIIDEAEEELRESKDASPEELVEIVEEAIEEIIELIKKEA
B9: GBRAP_166_4948 (protein)
chain: SLEEVIEETREFIRELAERMKTLNDEERLDALIEIAERLEEARKAGVSEEDLLELVREALELVKEAGGSVEQFVGALDMFVDLDEEELDKVAEIAEEVKA
B10: GBRAP_78_6586 (protein)
chain: AIEAAIDALLAAAGAAMRLLSRDPRELAQDLLGELIDEVSEIYEAAEEENDKEEILAEAEELAAALQAALAQAEQFSPETVAAIQAALAAAQALIALLKK
B11: GBRAP_43_5764 (protein)
chain: SKELVDGAFDFALLALEEPSIPEETKVKAIKAAFGLAADEGYLNPEKVKEVVEKAAETLSAESLKEILKHLKELAKKYPELKETLEEAIEKLEKAIKEKE
B12: GBRAP_160_4302 (protein)
chain: MEELEKLKKEIDEIFDEAIELIEGESPEQRLAIVRVAMGEVILEAMENPKVSDEAEEKIAEIADKTEAEIRANPDLSEEEVKELIEKARDEVIEIIDELE
B13: GBRAP_184_5277 (protein)
chain: KVKLVEIEAETAEEAIKQVKKAAEEAKKEGVKLKLNILLKDADVEGIIELFELLKKLKEEGIIEEAVVGIEREFTEEEIDILVKAADEAGVKLVVAIKDE
B14: GBRAP_117_2595 (protein)
chain: SATDAEVAALVKRLVERIREALEKEKTLSEEERKKLREELLKEATEEVEKMLKLTDSDTVEEFFADALADLSPEERVEAYIIFEEALADAEERLKKEKAA
B15: GBRAP_52_6174 (protein)
chain: RRARAEAAAAALLEAIRAGRWEEVDALLRRAAAEFDDEEIRLMFEIVAERVPELTPEQQERVVEAALRAEDILEAAGHDPELASYLAARVAGAAHAALQA
B16: GBRAP_160_4849 (protein)
chain: SEKKEKVRKELLEAREFVLSLIPEVTVEQLAAFYDAEISSTLLELYEKGYINEEAEDAGLELADEMREELLAAADATPEELRRLVEEGVERMIKEIEKLM
B17: GBRAP_160_4609 (protein)
chain: KEKQKKFKEEIKKEFEEAIKMIEGETIEERANIIDVTIGQIIIEADELEVVSDESLDKIDEIRDEVVNYILENPDLTDEEIKKLIKEAEEKILAIVEADE
B18: GBRAP_80_6836 (protein)
chain: MEEKLEEAVKEIEEVDPEIAEKVKRIIEIAKELGVPLEDLLRLTEAILELAKVDKEKALELVERLLEEMEEALKRGDRDEALADIVDAESDALLHVEELE
B19: GBRAP_83_6884 (protein)
chain: KEEITVAGPGDRIEELAEIAIDLSKNEGYEVTIEIIAKPEELEKVLEGVERLAKEGLNVEVRIYAEGVTEEEAEELKKKIEEIAKKHGVKINVEITLEEP
B20: GBRAP_128_3523 (protein)
chain: SVAAARAAARATVDAIAAASVEEARAIARAFLAQLRGWSLEEVAAAVDVMRELLPRLSAEKLEAVADAIEEQRGAFSPEVARLLADLQVEALNLAEELEE
B21: GBRAP_52_6269 (protein)
chain: MKELAEKLAKEFIETSLNGTEEEVKEFAKKLVETESQELIELMLEIVVEMAKSLNAEELEKLLDAFLILEDELEEAGKDTLPAEDAAAELAKLYMEKLKE
B22: GBRAP_18_5402 (protein)
chain: APSPFEQDWASLSEEAQDFVAKAIGDALSEEDTERRIEILVDALVELSERLSPEEVYAAMRLLLRSVVSRMEEAEEVARRFIERVPERRPEAERVLEDLK
B23: GBRAP_52_5854 (protein)
chain: SSERARELARELVELALAGDEEGLEKRIKEIVETLSEEEILEILDELARLAKTATPEEVDAIVEVAIKLAEIAEEAGFDEWELSAAEARVGQAAYKNLQA
B24: GBRAP_186_5372 (protein)
chain: EEEAEKEIEEFIDKAAKEGYVISGVLEVKEFTEEAKERIIRELEALAEFSAEFGYKGALIIKTYLSEEEFEKLKEFVEEKREELSKETGAEVEVKIVHVK
B25: GBRAP_74_6568 (protein)
chain: SEELIKEIKEIAENKSLKEFSEFILKNIEKLDEESLLVAAKEFAKKVKEEKETITEEELEIAEEAAAALAEKAFQEDSSRETLKAVNELIKEVVEAEKSL
B26: GBRAP_78_6731 (protein)
chain: ELEKLLEEAIKVASEAAKLAVKQASNEVIAEIVEALSHLEEALELVEEGGEKEEILEELEKALEHLKEALKLLPESLTEIKKLLEEAIKLVEEAIKEVKK
B27: GBRAP_160_4843 (protein)
chain: SEKLEKVKKELEEARDFILSLVDEVSVEQVAKFADAELGSTALYLYEEGYINEEALDAILEEADKLVAELLANKNASVEEIKAIIDEHVKRAIEKVEKLL
B28: GBRAP_26_5491 (protein)
chain: KVEEILKEAAKKVREILKDESETKRAAIVAYVEDELLEAEEIFEENANNEEKIEEAKEEALKRVEEGLKDFGISEEKREKIVEVVKEALEKIEKAIKEEA
B29: GBRAP_52_5998 (protein)
chain: REARIRAVAEELVAAVLAGDEAGLRALLRELAATFTPEEIVATVALATELLMRDPRATDEDVRRFIDLVEEVLEEEGQDERTIADVTGAIARAIARAEAE

Molecular target: GABARAP, O95166
Sequence (O95166 whole entry, the tested form may be a part): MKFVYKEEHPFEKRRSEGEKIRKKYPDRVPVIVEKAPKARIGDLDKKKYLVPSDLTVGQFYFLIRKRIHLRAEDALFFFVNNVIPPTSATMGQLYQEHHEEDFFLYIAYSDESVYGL
Experiment: median log2 fold change of GCK-ALFA target abundance (FLAG IP / Myc IP barcode read proportion) (log2 ratio); each designed protein is fused to an ALFA-tag nanobody in HEK293 cells to bring the named protein to FLAG-tagged glucokinase (GCK); Myc marks an untargeted standard; higher = target protein stabilised (more abundant)
Conditions: target protein: 3xFLAG-MCP-GCK-ALFA reporter; HEK293 landing pad (RPLP)
Outline: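 HEK293 landing-pad cells received a recombined binder library fused to the ALFA nanobody and were induced with 2 μg mL^−1 doxycycline, then transfected with a plasmid encoding a FLAG-tagged target and a Myc-tagged standard. Lysates were collected after 48 h for anti-FLAG and anti-Myc immunoprecipitation, and the circular RNA barcodes were reverse transcribed, amplified and sequenced. Target abundance for each binder is the median log2 ratio of FLAG to Myc barcode read proportions. Barcodes had to reach a proportion of at least 10^−7 in both replicates, each binder needed at least 3 barcodes per replicate, a pseudocount of 10^−6 was applied, and the two replicates were pooled.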

Binder | median log2 fold change
B1 | 0.302
B2 | 0.342
B3 | 0.189
B4 | -0.0974
B5 | 0.161
B6 | 0.312
B7 | -0.432
B8 | -0.415
B9 | 0.0139
B10 | -0.336
B11 | -0.000635
B12 | -0.204
B13 | -0.264
B14 | 0.173
B15 | 0.22
B16 | -0.327
B17 | -0.0815
B18 | -0.0402
B19 | 0.189
B20 | 0.214
B21 | 0.267
B22 | 0.25
B23 | -0.122
B24 | 0.0239
B25 | 0.053
B26 | 0.0787
B27 | -0.0079
B28 | 0.261
B29 | 0.0658
